# Where “and” joins values, the source holds several entries; their conditions need not be identical. Identical values can stand only once. The shares of active, inactive and inconclusive entries below differ from those in the screen. Where the call is inconclusive, the potency comes from a doubtful curve fit. Calls of active or inactive are those of the source. Unless noted, calls come from the whole dose curve; as a rule, active = well fitted curve in the direction sought with a large enough effect in the repeat runs; inconclusive = weak or mixed curves; inactive = no such curve, though single readings can be large; an effect the other way counts as inactive or inconclusive.
# Columns and labels:
# [1] = target: Estrogen receptor (Homo sapiens) (UniProt P03372); assay: qHTS assay to identify small molecule agonists of the estrogen receptor alpha (ER-alpha) signaling pathway using the BG1 cell line (AID 743079); conditions: BG1Luc4E2 cells, ERE-luciferase agonist, 22 h; activation: at 70.3 µM (top of the series) unless noted; note: nearly all actives have a fitted effect of over 20% in size; for activation: % is set by controls: 0 for no effect and ±100 for the full control effect
# UniProt P03372, sequence (P03372 whole entry, looked up): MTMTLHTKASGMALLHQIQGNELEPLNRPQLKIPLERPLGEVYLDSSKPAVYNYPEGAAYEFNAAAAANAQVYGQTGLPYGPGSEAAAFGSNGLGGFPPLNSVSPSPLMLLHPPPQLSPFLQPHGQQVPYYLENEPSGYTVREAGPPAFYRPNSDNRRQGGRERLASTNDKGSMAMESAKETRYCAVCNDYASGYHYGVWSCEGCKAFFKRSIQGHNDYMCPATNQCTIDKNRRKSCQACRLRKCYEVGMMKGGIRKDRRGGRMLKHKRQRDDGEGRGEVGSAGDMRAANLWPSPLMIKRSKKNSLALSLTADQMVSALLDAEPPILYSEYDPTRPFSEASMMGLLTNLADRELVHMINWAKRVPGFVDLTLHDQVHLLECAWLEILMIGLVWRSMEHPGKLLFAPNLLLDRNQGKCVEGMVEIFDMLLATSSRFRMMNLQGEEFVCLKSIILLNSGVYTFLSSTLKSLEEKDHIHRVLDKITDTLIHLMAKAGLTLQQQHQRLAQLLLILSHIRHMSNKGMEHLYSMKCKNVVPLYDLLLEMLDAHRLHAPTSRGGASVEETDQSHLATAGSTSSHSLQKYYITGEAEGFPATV
# [2] = qHTS assay to identify small molecule antagonists of the estrogen receptor alpha (ER-alpha) signaling pathway using the BG1 cell line (AID 743080; calls by dose curve;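 note: BG1 cells stimulated with 17beta-estradiol alongside compound; nearly all actives have a fitted effect of over 25% in size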; for activity change, negative = inhibition: % is set by controls: 0 for no effect and ±100 for the full control effect); conditions: BG1Luc4E2 ERE-luciferase antagonist mode, luminescence; activity change, negative = inhibition: at 70.3 µM (top of the series) unless noted
# Summary of the method: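 After 5 days in phenol-red-free 10% charcoal-stripped FBS medium, BG1-Luc-4E2 cells were seeded, left 24 h at 37 C, co-treated with compounds and 17beta-estradiol for 21.5 h, then assayed for viability and luciferase.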
# Aromatase (Homo sapiens) = Aromatase (Homo sapiens) (UniProt P11511); assay: qHTS assay to identify aromatase inhibitors (AID 743083); conditions: MCF-7 aro ERE, testosterone-driven ERE luciferase, 24 h; activity, negative = inhibition: at 70.3 µM (top of the series); note: nearly all actives have a fitted effect of over 55% in size; for activity, negative = inhibition: % is set by controls: 0 for no effect and ±100 for the full control effect
# UniProt P11511, sequence (P11511 whole entry, looked up): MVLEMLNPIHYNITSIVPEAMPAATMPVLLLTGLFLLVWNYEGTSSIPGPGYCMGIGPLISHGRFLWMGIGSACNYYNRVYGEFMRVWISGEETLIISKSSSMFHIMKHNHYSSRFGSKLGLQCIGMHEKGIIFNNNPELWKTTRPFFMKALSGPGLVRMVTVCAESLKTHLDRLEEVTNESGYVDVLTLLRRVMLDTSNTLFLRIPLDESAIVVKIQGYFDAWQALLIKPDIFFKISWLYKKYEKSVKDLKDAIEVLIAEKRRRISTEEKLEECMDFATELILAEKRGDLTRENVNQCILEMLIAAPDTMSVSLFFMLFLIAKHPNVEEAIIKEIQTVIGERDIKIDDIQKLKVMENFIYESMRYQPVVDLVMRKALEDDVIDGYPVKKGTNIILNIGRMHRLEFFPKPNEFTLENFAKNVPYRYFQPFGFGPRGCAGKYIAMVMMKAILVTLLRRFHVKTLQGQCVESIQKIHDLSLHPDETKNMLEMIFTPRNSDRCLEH
# [3] = qHTS assay to identify aromatase inhibitors - cell viability counter screen (AID 743084); conditions: MCF-7 aro ERE viability, CellTiter-Fluor, 24 h; activity change, negative = cytotoxicity: at 70.3 µM (top of the series);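 note: cells stimulated with testosterone during compound exposure; nearly all actives have a fitted effect of over 55% in size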
# [4] = target: Peroxisome proliferator-activated receptor gamma (Homo sapiens) (UniProt P37231); assay: qHTS assay to identify small molecule antagonists of the peroxisome proliferator-activated receptor gamma (PPARg) signaling pathway (AID 743191; calls by dose curve; note: nearly all actives have a fitted effect of over 30% in size; for ratio activity, negative = inhibition: % is set by controls: 0 for no effect and ±100 for the full control effect); conditions: HEK293H PPARg-UAS-bla, beta-lactamase ratio, antagonist, 17 h; ratio activity, negative = inhibition: at 62.6 µM (top of the series) unless noted
# UniProt P37231, sequence (P37231 whole entry, looked up): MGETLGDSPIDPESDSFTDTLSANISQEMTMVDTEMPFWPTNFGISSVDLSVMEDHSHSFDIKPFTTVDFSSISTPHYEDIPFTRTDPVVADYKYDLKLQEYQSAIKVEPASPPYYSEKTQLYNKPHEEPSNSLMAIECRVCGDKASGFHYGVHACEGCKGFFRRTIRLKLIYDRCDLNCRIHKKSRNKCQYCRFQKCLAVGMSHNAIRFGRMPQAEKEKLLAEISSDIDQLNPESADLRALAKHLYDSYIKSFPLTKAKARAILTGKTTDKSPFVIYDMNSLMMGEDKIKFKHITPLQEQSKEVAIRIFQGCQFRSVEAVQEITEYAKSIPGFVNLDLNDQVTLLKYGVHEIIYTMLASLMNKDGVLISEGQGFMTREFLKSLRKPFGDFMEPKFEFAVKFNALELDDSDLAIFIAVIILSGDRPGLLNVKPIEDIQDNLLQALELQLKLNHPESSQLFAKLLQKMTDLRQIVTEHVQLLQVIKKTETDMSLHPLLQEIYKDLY
# Summary of the method: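 GeneBLAzer PPARg UAS-bla HEK293H cells carrying a UAS-driven beta-lactamase reporter were plated at 3000 cells/well, preincubated 5 h at 37C, then given compound for 17 h at 37C; LiveBLAzer B/G FRET substrate was read after 1 h at room temperature.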
# [5] = target: Aryl hydrocarbon receptor (Homo sapiens) (UniProt P35869); assay: qHTS assay to identify small molecule that activate the aryl hydrocarbon receptor (AhR) signaling pathway (AID 743085); note: nearly all actives have a fitted effect of over 15% in size
# UniProt P35869, sequence (P35869 whole entry, looked up): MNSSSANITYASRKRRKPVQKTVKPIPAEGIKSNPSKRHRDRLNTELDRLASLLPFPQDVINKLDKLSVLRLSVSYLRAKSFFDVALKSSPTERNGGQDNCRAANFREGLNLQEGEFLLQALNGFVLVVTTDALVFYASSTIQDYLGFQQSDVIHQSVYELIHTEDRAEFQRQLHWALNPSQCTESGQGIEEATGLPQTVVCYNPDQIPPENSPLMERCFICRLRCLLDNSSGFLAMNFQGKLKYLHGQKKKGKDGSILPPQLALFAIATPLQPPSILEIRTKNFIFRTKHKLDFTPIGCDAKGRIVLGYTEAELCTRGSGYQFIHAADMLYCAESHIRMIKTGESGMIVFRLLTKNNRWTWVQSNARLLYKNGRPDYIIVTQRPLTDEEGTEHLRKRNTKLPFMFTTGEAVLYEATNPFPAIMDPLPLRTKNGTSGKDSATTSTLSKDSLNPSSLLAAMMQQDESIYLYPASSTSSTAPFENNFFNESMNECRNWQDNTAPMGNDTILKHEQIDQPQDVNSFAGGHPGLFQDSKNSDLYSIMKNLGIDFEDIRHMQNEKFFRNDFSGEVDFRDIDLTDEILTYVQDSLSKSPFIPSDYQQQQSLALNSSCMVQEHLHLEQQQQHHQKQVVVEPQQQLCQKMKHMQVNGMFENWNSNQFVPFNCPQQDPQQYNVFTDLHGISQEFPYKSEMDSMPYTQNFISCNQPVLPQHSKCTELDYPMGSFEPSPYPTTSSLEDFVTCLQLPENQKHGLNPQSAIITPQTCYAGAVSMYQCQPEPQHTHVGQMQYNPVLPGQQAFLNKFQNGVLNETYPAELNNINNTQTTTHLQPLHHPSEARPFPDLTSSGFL
# Summary of the method: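 Compounds were tested in HepG2 hepatocellular carcinoma cells harbouring a stably integrated luciferase gene under control of 20 DREs. Increased reporter signal after 24 h treatment at 37C was taken as AhR activation.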
# [6] = target: Peroxisome proliferator-activated receptor gamma (Homo sapiens) (UniProt P37231); assay: qHTS assay to identify small molecule agonists of the peroxisome proliferator-activated receptor gamma (PPARg) signaling pathway (AID 743094; active = well fitted activation curve with a large enough effect in the signal ratio in the repeat runs, not every such curve was filed as active; inconclusive = weak or mixed curves, or effect the other way; inactive = no such curve, though single readings can be large or run the other way; the % refers to the signal ratio); conditions: HEK293H PPARg-UAS-bla, beta-lactamase FRET ratio, 17 h; activation: at 57 µM (top of the series) unless noted
# Summary of the method: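 Following 5 h plating at 37C, PPARg-bla HEK293H cells receive compound or DMSO for 17 h; fluorescence intensity is recorded after LiveBLAzer B/G loading for 1 h at room temperature.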
# [7] = qHTS assay to identify small molecule antagonists of the estrogen receptor alpha (ER-alpha) signaling pathway using the BG1 cell line - cell viability counter screen (AID 743081); conditions: BG1Luc4E2 viability, CellTiter-Fluor, 22 h; activity change, negative = cytotoxicity: at 70.3 µM (top of the series);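 note: compound given together with 17beta-estradiol as the ER stimulus; nearly all actives have a fitted effect of over 45% in size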
# [8] = qHTS assay to identify small molecule that activate the aryl hydrocarbon receptor (AhR) signaling pathway - cell viability counter screen (AID 743086); note: nearly all actives have a fitted effect of over 45% in size
# Summary of the method: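 HepG2-AhR-luc (HG2L7.5c1) cells, 4000/well, were preincubated 5 h at 37C, exposed to compound in qHTS format for 24 hr at 37C, then given CellTiter-Fluor for 30 min; viability was read as fluorescence in the reporter wells.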
# [9] = qHTS assay to identify small molecule antagonists of the peroxisome proliferator-activated receptor gamma (PPARg) signaling pathway - cell viability counter screen (AID 743194); conditions: PPARg-bla HEK293H viability, CellTiter-Glo luminescence, 17 h, co-treated with 50 nM rosiglitazone; activity change, negative = cytotoxicity: at 62.6 µM (top of the series) unless noted; note: nearly all actives have a fitted effect of over 55% in size
# Summary of the method: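 PPARg-UAS-bla HEK293H cells were plated, rested 5 h at 37 C, then treated with compounds plus rosiglitazone (50 nM final) for 17 h at 37 C; viability was then read by CellTiter-Glo luminescence after 30 min at room temperature.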
# Potency is the fitted concentration of half-maximal effect; tags give direction and shape of the fitted curve or compound fluorescence and quenching.
compound,measurement,setting,value
CCCCCCOc1ccc(N)cc1,Potency,[1],active: 9.69 µM
same,Potency,[2],"inconclusive: 27.3 µM [rising, single point]"
same,Potency,Aromatase (Homo sapiens),"inconclusive: 48.6 µM [inhibitor, partial curve]"
same,Potency,[3],"inconclusive: 68.6 µM [cytotoxic, partial curve, poor fit]"
same,Potency,[4],inactive
CC1=CC(C)(C)Nc2ccccc21,Potency,[1],inactive
same,Potency,[2],"inconclusive: 58 µM [falling, partial curve]"
same,Potency,Aromatase (Homo sapiens),"inconclusive: 32.6 µM [inhibitor, partial curve, poor fit] and inconclusive: 66.8 µM [inhibitor, partial curve, poor fit]"
same,Potency,[5],"inconclusive: 65.1 µM [activator, single point] and inconclusive: 59.5 µM [activator, single point]"
O=C(CCCN1CCC(O)(c2ccc(Br)cc2)CC1)c1ccc(F)cc1,Potency,[1],inactive
same,Potency,[2],inactive
same,Potency,Aromatase (Homo sapiens),inactive
same,Potency,[6],inactive
same,"ratio activity, negative = inhibition",[4],inconclusive: -25.6%
CC[C@H]1CC[C@H](NCc2cc3c(cc2OC)[C@H]2C[C@H]2C(=O)N3C)[C@H](c2ccccc2)N1,Potency,[1],"inconclusive: 54.5 µM [inhibitor, partial curve]"
same,Potency,[2],"inconclusive: 61.1 µM [falling, partial curve]"
same,Potency,[7],"inconclusive: 27.3 µM [cytotoxic, partial curve]"
same,Potency,Aromatase (Homo sapiens),active: 68.6 µM
same,Potency,[3],"inconclusive: 61.1 µM [cytotoxic, single point]"
same,Potency,[8],"inconclusive: 61.1 µM [falling, single point]"
same,activation,[6],inconclusive: -23.1%
same,Potency,[4],inactive
CCOC(=O)c1ccc(N(C)C)cc1,Potency,[1],active: 54.5 µM
same,Potency,[2],"inconclusive: 21.7 µM [rising, partial curve]"
same,Potency,[7],inactive
same,"ratio activity, negative = inhibition",[4],inconclusive: 25.2%
Cc1oc2c(NC(=O)c3c(Cl)cccc3Cl)cccc2c1C(C)(C)O,Potency,[1],"inconclusive: 6.86 µM [inhibitor, partial curve]"
same,Potency,[2],"inconclusive: 6.86 µM [falling, full curve]"
same,Potency,Aromatase (Homo sapiens),"inconclusive: 30.6 µM [inhibitor, partial curve]"
same,Potency,[6],"inconclusive: 17.4 µM [inhibitor, partial curve]"
same,Potency,[4],"inconclusive: 11 µM [rising, full curve]"
Cc1nc2ccccc2n1Cc1ccc(Cl)cc1,Potency,[1],"inconclusive: 2.11 µM [inhibitor, full curve]"
same,Potency,[2],active: 2.37 µM
same,Potency,[7],"inconclusive: 15 µM [cytotoxic, partial curve]"
same,Potency,[8],"inconclusive: 4.22 µM [falling, partial curve, poor fit]"
same,Potency,[4],"inconclusive: 26.6 µM [inhibitor, partial curve, poor fit]"
COc1cc2c(cc1OC)-c1cc(=Nc3c(C)cc(C)cc3C)n(C)c(=O)n1CC2,Potency,[1],"inconclusive: 26.6 µM [inhibitor, partial curve]"
same,Potency,[2],inconclusive: 29.8 µM
same,Potency,[7],"inconclusive: 33.5 µM [cytotoxic, single point]"
same,Potency,[6],"inconclusive: 26.8 µM [rising, single point]"
same,Potency,[4],active: 13.3 µM
same,"activity change, negative = cytotoxicity",[9],inconclusive: -36.3% [cytotoxic]
O=c1[nH]c2ccc(S(=O)CCN3CCC(Cc4ccc(F)cc4)CC3)cc2o1 (centres undefined),Potency,[1],active: 12.2 µM
same,"activity change, negative = inhibition",[2],inconclusive: -22.2%
same,Potency,[7],"inconclusive: 68.6 µM [cytotoxic, partial curve, poor fit]"
same,Potency,[6],"inconclusive: 6.92 µM [fluorescent, full curve, poor fit]"
same,Potency,[4],"inconclusive: 12.3 µM [fluorescent, partial curve, poor fit]"
NCC1CCC(C(=O)Oc2ccc(CCC(=O)O)cc2)CC1 (centres undefined),Potency,[1],"inconclusive: 26.6 µM [inhibitor, partial curve]"
same,Potency,[2],active: 26.6 µM
same,Potency,Aromatase (Homo sapiens),"inconclusive: 26.6 µM [inhibitor, partial curve]"
CN(C)C(=O)C(CCN1CCC(O)(c2ccc(Cl)cc2)CC1)(c1ccccc1)c1ccccc1,Potency,[1],"inconclusive: 23.7 µM [inhibitor, partial curve]"
same,Potency,[2],"inconclusive: 33.5 µM [falling, single point]"
same,Potency,[7],"inconclusive: 26.6 µM [cytotoxic, partial curve]"
same,Potency,[3],"inconclusive: 6.68 µM [cytotoxic, full curve]"
same,Potency,[8],"inconclusive: 21.1 µM [falling, partial curve, poor fit]"
same,activation,[6],inconclusive: -18.7%
same,Potency,[4],"inconclusive: 16.8 µM [fluorescent, partial curve, poor fit]"
same,Potency,[9],"inconclusive: 23.7 µM [cytotoxic, partial curve, poor fit]"
OC(CCN1CCCCC1)(c1ccccc1)C1CCCCC1 (centres undefined),Potency,[1],inactive
same,Potency,[2],"inconclusive: 33.5 µM [rising, partial curve]"
same,Potency,Aromatase (Homo sapiens),inactive
same,Potency,[6],inactive
same,"ratio activity, negative = inhibition",[4],inconclusive: -11.5%
same,Potency,[9],"inconclusive: 0.596 µM [cytotoxic, partial curve, poor fit]"

# Source: PubChem BioAssay (Tox21)
